# Source: FireProtDB (doi:10.1002/prot.20782)
# Settings: Gallus gallus; pH 2.2; 20 °C; GdnHCl; CD; None; HCl 10 mM; reversible: Unknown
substance,measurement,value
Lysozyme C wild type (no sequence given),denaturant m value,2.4 kcal/mol/M
same,unfolding free energy,5.71 kcal/mol
